Experimental data taken from PubChem BioAssay AID686979 (National Center for Advancing Translational Sciences (NCATS), 2013).
“And” between values parts separate entries of the source, which are not always exact repeats. Identical values can stand only once. Hit rate of the full screen: of about 420,000 compounds, about 50,000 (12%) were called active. Inconclusive results, whose numbers are uncertain, are shown with a selection of clear calls. Calls come from the whole dose curve; as a rule, active = well fitted inhibition curve with a large enough effect; inconclusive = small, poorly fitted or top-dose-only effect; inactive = flat fitted curve, though single readings scatter. Where the call is inconclusive, the potency comes from a doubtful curve fit.

Experiment: qHTS for Inhibitors of human tyrosyl-DNA phosphodiesterase 1 (TDP1): qHTS in cells in presence of CPT; note: nearly all actives have a fitted effect of over 55% in size
Details: chicken DT40 Tdp1-/-;hTDP1 cells + 20 nM CPT, ATP luminescence, 48 h; activity change, negative = growth inhibition: at 46.2 µM (top of the series) unless noted
Method in brief: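 Chicken DT40 Tdp1-/- cells complemented with human TDP1, 400 cells/well, exposed to compounds plus 20 nM camptothecin for at least 48 h at 37 C; viability read as ATP content by CellTiter-Glo luminescence.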
% is set by controls: 0 for no effect and ±100 for the full control effect; potency is the fitted concentration of half-maximal effect; tags give direction and shape of the fitted curve.

SMILES	Potency	activity change, negative = growth inhibition
COc1ccc(-n2c(SCCC#N)nnc2-c2cc(Cl)ccc2OC)cc1Cl	inconclusive: 25.9 µM [inhibitor, single point]	–
Cc1ccc(C(=O)NNC(=S)NCC2CCCO2)cc1[N+](=O)[O-] (stereo not drawn)	inconclusive: 29.1 µM [inhibitor, single point]	–
c1ccc2c(c1)OCC(c1nn3c(Cn4nnc5ccccc54)nnc3s1)O2 (stereo not drawn)	active: 25.9 µM	–
Cc1cccc(N2C(=O)/C(=C/c3ccccn3)SC2=S)c1	inconclusive: 29.1 µM [inhibitor, single point]	–
C=C(C(=O)c1ccccc1)C(NC(C)(C)C)c1ccccc1 (stereo not drawn)	active: 2.06 µM	–
C=C(C)Cn1c(C2CC(=O)N(Cc3ccccc3)C2)nc2ccccc21 (stereo not drawn)	inconclusive: 29.1 µM [inhibitor, single point]	–
CN(C)C(=O)CN1CCN(C(=O)CCl)CC1	inconclusive: 29.1 µM [inhibitor, single point]	–
COc1cc(CNCCc2ccccc2)ccc1OCc1ccc(Cl)nc1	inconclusive: 29.1 µM [inhibitor, single point]	–
CC(C(=O)NC1CCCC1)N(Cc1ccc2c(c1)OCO2)C(=O)c1snc(C(N)=O)c1N (stereo not drawn)	–	inactive: -12.6%
O=C(NNc1cccc(Cl)n1)c1ccccc1CC[N+](=O)[O-]	active: 10.3 µM	–
CCCN1CNc2c(c(=O)[nH]c(=S)n2CCc2ccccc2OC)C1	inconclusive: 25.1 µM [inhibitor, single point]	–
CCc1ccccc1NC(=O)C1CCN(C2=NS(=O)(=O)C(c3ccc(C)c(C)c3)=C2C)CC1	inconclusive: 18.4 µM [inhibitor, single point]	–
Cc1ccc(-n2ncc(C(=O)NCC3CCN(C4CCCC4)C3)c2C2CCN(C(=O)OC(C)(C)C)CC2)cc1 (stereo not drawn)	inconclusive: 23.1 µM [inhibitor, single point]	–
Nc1nc(=S)c2n[nH]nc2[nH]1	inconclusive: 35.5 µM [inhibitor, single point] and inconclusive: 25.1 µM [inhibitor, single point]	–
COc1ccc(-c2csc(Nc3ncccc3C)n2)cc1	inconclusive: 29.1 µM [inhibitor, single point]	–
NC(Cc1ccc(Cl)cc1)c1csc(Nc2cc(NCCCO)ncn2)n1 (stereo not drawn)	inconclusive: 18.4 µM [inhibitor, single point]	–
Cc1cnc(NC(=O)Cc2cccs2)s1	inconclusive: 25.9 µM [inhibitor, single point]	–
NC(=O)c1ccccc1NC(=O)Nc1cccc2ccccc12	active: 1.64 µM	–
CCN(C1CCCCC1)S(=O)(=O)c1ccc(-n2cnnn2)c(C)c1	–	inactive: 21.4%
Cn1c(=O)c(-c2cc(F)cc(F)c2)nc2cnc(Oc3ccccc3)nc21	–	inactive: -26.1%
CCOC(=O)c1c(C)oc2nc(C)nc(NC(C)c3ccccc3)c12 (stereo not drawn)	active: 20.6 µM	–
CC(C)c1ccc(-c2csc(NC(=O)c3cccs3)c2C(=O)O)cc1	inconclusive: 16.4 µM [inhibitor, single point]	–
CCCCCCn1c(SCCOC)nc2c1c(=O)[nH]c(=O)n2C	inconclusive: 20.6 µM [inhibitor, partial curve]	–
CCOC(=O)C1=C(C)NC2=C(C(=O)CC(C)(C)C2)C1c1ccsc1 (stereo not drawn)	inconclusive: 16.4 µM [inhibitor, single point]	–
O=C(COc1ccc(Cl)cc1)N1CCN(c2cccc(C(F)(F)F)c2)CC1	inconclusive: 29.1 µM [inhibitor, single point]	–

SMILES	Potency	activity change, negative = growth inhibition
Cc1cccc(CSCC(=O)N2CCN(S(=O)(=O)c3ccccc3C#N)CC2)c1	–	inactive: -20.2%
CCOC(=O)C1=NNC(C(=O)OCC)C1c1ccccc1 (stereo not drawn)	–	inconclusive: -0.979% [inhibitor]
O=C(Nc1nc(-c2ccccn2)cs1)C1CCCC1	active: 2.91 µM	–
COc1ccc(C2C(=O)N(C3CCCCC3)CC(=O)N2Cc2ccc3c(c2)OCO3)cc1 (stereo not drawn)	inconclusive: 25.9 µM [inhibitor, single point]	–
COc1ccc2oc(=O)cc(-c3cc4cccc(OC)c4o3)c2c1	–	inactive: -9.07%
O=C(NCc1cccs1)C1Cc2c(-c3ccccc3Oc3ccccc3)ccnc2O1 (stereo not drawn)	inconclusive: 18.4 µM [inhibitor, single point]	–
Cc1nnc(NC(=O)c2ccc3ccccc3n2)s1	inconclusive: 20.6 µM [inhibitor, single point]	–
COc1ccc(N2C(=O)C3CCCN3C2c2ccc(C)o2)cc1Cl (stereo not drawn)	–	inconclusive: -35.2% [inhibitor]
COc1cc(OC)cc(N(C(=O)C2COc3ccccc3O2)C(C(=O)NC2CCCCC2)c2ccc(O)cc2)c1 (stereo not drawn)	inconclusive: 23.1 µM [inhibitor, single point]	–
COc1ccc(/C=C/C(=O)CCC(=O)O)cc1	–	inactive: 20.9%
Cc1[nH]c2ccccc2c1/C=N/NC(=O)c1cc(-c2cccs2)[nH]n1	inconclusive: 29.1 µM [inhibitor, single point]	–
COc1ccc(/C=N/OC(=O)Nc2ccc(Cl)cc2)c(OC)c1	–	inactive: 16%
COc1ccc(C(=O)NC2CCCN(Cc3ccc(Cl)cc3)C2)c(OC)c1 (stereo not drawn)	active: 16.4 µM	–
Cc1ccc(S(=O)(=O)c2nc(S(C)(=O)=O)sc2N2CCCCCC2)cc1	–	inactive: -24.5%
CSc1nnc(-c2sc3cc(C(F)(F)F)cnc3c2-c2ccccn2)n1C	inconclusive: 16.4 µM [inhibitor, partial curve]	–
CC(NC(=O)CSc1ncn[nH]1)c1ccc(Cl)cc1Cl (stereo not drawn)	–	inactive: -11.9%
CCCc1nc2oc(C(=O)c3ccccc3)c(N)c2c2c1COC(C)(C)C2	–	inconclusive: -33.2% [inhibitor]
COC(=O)COc1cc2ccccc2cc1C(=O)Nc1ccccc1	inconclusive: 29.1 µM [inhibitor, single point]	–
CC(C)c1ccc(-n2ccnc2SCC(=O)O)cc1	–	inactive: -2.02%
CC(C)C[C@H]1CN=C(Nc2ccccc2)N1CCCC1CCCC1	active: 14.6 µM	–
CCc1ccc(N2CC(C(=O)N/N=C/c3cc([N+](=O)[O-])ccc3O)CC2=O)cc1 (stereo not drawn)	inconclusive: 20.6 µM [inhibitor, single point]	–
COc1cc(NCCCn2ccc(NC(=O)OCc3ccccc3)nc2=O)cc(OC)c1OC	–	inactive: -26.1%
CON(c1nc(Cl)nc(N(C)C)n1)S(=O)(=O)c1ccccc1Cl	–	inactive: 4.89%
Cc1nc2c3ccccc3nc(NNC(=O)CCC(=O)N3CCN(c4ccccc4)CC3)n2n1	inconclusive: 29.1 µM [inhibitor, single point]	–
COC(=O)c1ccccc1SC1CC(=O)N(c2cccc(C)c2)C1=O (stereo not drawn)	active: 9.2 µM	–

SMILES	Potency	activity change, negative = growth inhibition
CCn1c(Cc2ccccc2)nnc1SCC(=O)Nc1nccs1	–	inconclusive: -32.1% [inhibitor]
O=C(O)CC/C(=N/NC(=O)c1ccc(-c2ccccc2)cc1)c1ccccc1	–	inactive: 10.7%
CCC(C)(C)NC(=O)/C=C/c1cc(OC)c(OC)c(S(=O)(=O)N2CCc3ccccc32)c1	inconclusive: 29.1 µM [inhibitor, single point]	–
CNC(=O)c1cc2c(=O)n3cc(C)ccc3nc2n(C(C)C)c1=N	inconclusive: 10.3 µM [inhibitor, partial curve, poor fit]	–
OC1O[C@H](c2ccc3c(c2)OCO3)[C@H]2CO[C@H](c3ccc4c(c3)OCO4)[C@@H]12 (stereo partly drawn)	inconclusive: 23.1 µM [inhibitor, single point]	–
CC(C)(C)C1COc2ccccc2N1C(=O)c1ccccc1Cl (stereo not drawn)	inconclusive: 29.1 µM [inhibitor, single point]	–
Cc1cccc(N2CCN(S(=O)(=O)c3ccc4[nH]c(=O)ccc4c3)CC2)c1C	inconclusive: 13 µM [inhibitor, partial curve]	–
CC1=C(C(=O)OC2CCC(C)CC2)C(c2ccc(O)c([N+](=O)[O-])c2)NC(=O)N1 (stereo not drawn)	–	inactive: -26.3%
COc1ccc(C2CC(c3cccc([N+](=O)[O-])c3)=NN2/C(C)=C/C(C)=O)cc1 (stereo not drawn)	active: 16.4 µM	–
Cc1cc(C)cc(NC(=O)CN2C(=O)c3ccccc3C2=O)c1	–	inactive: 11.3%
CC(=O)N1N=C(c2ccc(Cl)cc2)CC1c1ccco1 (stereo not drawn)	active: 16.4 µM	–
Cc1nc2c(O)cccc2cc1CO	–	inactive: -3.82%
COc1ccc(-n2c(=O)c(-c3cc(F)cc(F)c3)nc3cncnc32)cc1	–	inactive: -0.221%
CCCc1cc(NC(=O)COC(=O)c2nccnc2N)n(-c2ccccc2)n1	–	inactive: 0.0227%
COc1ccc(Br)cc1CNC(=O)c1ccc2c(c1)nc1n2CCCCC1	inconclusive: 18.4 µM [inhibitor, single point]	–
Cc1nc2ccccc2n1C(=O)c1cc(-c2ccc(Br)cc2)nc2ccccc12	inconclusive: 16.4 µM [inhibitor, single point]	–
Cc1ccc(C(=O)N/N=C\c2ccc(-c3ccc([N+](=O)[O-])cc3)o2)cn1	–	inactive: -0.46%
COc1ccc(CCNC(=O)Nc2nc(C(N)CCc3ccccc3)cs2)cc1OC (stereo not drawn)	inconclusive: 23.1 µM [inhibitor, single point]	–
COc1ccc(S(=O)(=O)n2c(C)nc3ccccc32)cc1C	–	inactive: -15.4%
Cc1ccc(N(CC2CO2)S(=O)(=O)c2ccc([N+](=O)[O-])cc2)cc1 (stereo not drawn)	inconclusive: 29.1 µM [inhibitor, single point]	–
Cc1ccc2nc(SC(C(=O)c3ccccc3)c3ccccc3)nc(C)c2c1 (stereo not drawn)	inconclusive: 29.1 µM [inhibitor, single point]	–
Cc1nn(C)c(C)c1CCC(=O)NC1CC(C)(C)Cc2c1cnn2-c1ccccc1 (stereo not drawn)	inconclusive: 18.4 µM [inhibitor, single point]	–
O=C(/C=C/c1ccc([N+](=O)[O-])s1)N1CCCC1	active: 20.6 µM	–
